Laboratory results reported in article PMC9933715 (Antimicrobial Agents and Chemotherapy, 2023).

What was measured:
[1] = tested on: DENV-R2A full RNA genome; conditions: NPP3C/6A1HI 50 μM, NITD008 10 μM, Huh7.5
[2] = tested on: DENV-R2A (Rluc-expressing DENV, serotype 2 strain 16681); format: cell-based, Dengue virus; conditions: NITD008 10 μM, Huh7.5
[3] = tested on: sg-DENV-R2A subgenomic replicon; conditions: Huh7.5; for decrease of sg-DENV-R2A replication: 50 μM, treated for 2 days
[4] = tested on: sg-DENV-R2A GND; conditions: 50 μM, 4 h posttransfection, vs DMSO

Row | SMILES | DENV replication after electroporation of full-length DENV-R2A vRNA [1] | inhibition of DENV replication (internal control) [2] | sg-DENV-R2A replication under control inhibitor ([3]; NITD008 10 μM) | Rluc activity as read-out of viral RNA translation [4] | decrease of sg-DENV-R2A replication [3]
1 | C#C[C@@]1(O)[C@H](O)[C@@H](CO)O[C@H]1n1ccc2c(N)ncnc21 [NITD008, reference compound] | almost completely abrogated | potently inhibited DENV replication | very little replication, if any |  | 
2 | CC(=O)c1ccc2cn[nH]c2c1 [Compound 6A1HI, 6-acetyl-1H-indazole] | severely impacted |  |  | remained unchanged | ~2.7 Log10
3 | O=C(Nc1ccccc1)c1cccnc1 [NPP3C, N-phenylpyridine-3-carboxamide] | severely impacted |  |  | remained unchanged | approximately 1.3 Log10
